# In a collection of fitness landscapes (doi:10.1016/j.celrep.2020.107928):
# Over roughly 81,000 sequences, “one-hybrid fitness for binding NBS DNA” has its median near -0.1; the highest 2% begin near 0.36. Some of the results follow.
# B1: Caulobacter ParB omega fusion; a variant is named by its letters at X, in order, B8GW30 (parent)
# chain: MESVVVGEPGMSEGRRGLGRGLSALLGEVDAAPAQAPGEQLGGSREAPIEILQRNPDQPRRTFREEDLEDLSNSIREKGVLQPILVRPSPDTAGEYQIVAGERAWRAAQRAGLKTVPIMVRELDDLAVLEIGIIENVQRADLNVLEEALSYKVLMEKFERTQENIAQTIGKSXSHVANXMRLLXLPDEVQSYLVSGELTAXHARAIAAAADPVALAKQIIEGGLSVRETEALARKAPNLSAGKSKGGRPPRVKDTDTQALESDLSSVLGLDVSIDHRGSTGTLTITYATLEQLDDLCNRLTRGI
# Variants of: B1
# Experiment: one-hybrid fitness for binding NBS DNA (the Noc-binding site; scaled: cognate 1, non-cognate 0); higher = stronger binding
# Settings: with NBS DNA site
# Summary of the method: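 On M9-minus-histidine containing 0.1 mM IPTG and 5 mM 3-AT, E. coli USO cells with a HIS3 reporter, site 19 bp from the promoter, grew 48 hours at 37°C to select Caulobacter ParB libraries randomised at four specificity codons. Plasmids from before and after were Illumina-sequenced, with three replicate libraries pooled and variants under 10 reads left out. Fitness is the log change in variant-to-wild-type read ratio, rescaled against cognate and non-cognate.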
row,Variant,one-hybrid fitness for binding NBS DNA
1,KSMH,≤ 0.2
2,CGVG,≤ 0.2
3,YVMV,≤ 0.2
4,RSRE,≤ 0.2
5,TLWG,≤ 0.2
6,AVRH,≤ 0.2
7,SAVW,≤ 0.2
8,HTSP,≤ 0.2
9,AYDL,≤ 0.2
10,RVSF,≤ 0.2
11,PRGW,≤ 0.2
12,WGLN,≤ 0.2
13,RHSK,≤ 0.2
14,DGKQ,≤ 0.2
15,PLQR,≤ 0.2
16,WTQS,≤ 0.2
17,RKIR,0.384
18,NQRS,≤ 0.2
19,VFSS,≤ 0.2
20,YCEG,≤ 0.2
21,HAAG,≤ 0.2
22,PAAW,≤ 0.2
23,LRIN,≤ 0.2
24,WQYR,≤ 0.2

row,Variant,one-hybrid fitness for binding NBS DNA
1,LTLY,≤ 0.2
2,DIAS,≤ 0.2
3,TAPS,≤ 0.2
4,RHPY,≤ 0.2
5,PPSW,≤ 0.2
6,AQQI,≤ 0.2
7,DASK,≤ 0.2
8,SKFC,≤ 0.2
9,LNLS,≤ 0.2
10,RGMC,≤ 0.2
11,MYTF,≤ 0.2
12,PPCS,≤ 0.2
13,CAGF,≤ 0.2
14,IHED,≤ 0.2
15,ITSR,≤ 0.2
16,HYVS,≤ 0.2
17,NLGD,≤ 0.2
18,YLMT,≤ 0.2
19,RTGM,≤ 0.2
20,KPSI,≤ 0.2
21,NYCR,≤ 0.2
22,VKKH,≤ 0.2
23,ACFR,≤ 0.2
24,LQGP,≤ 0.2

row,Variant,one-hybrid fitness for binding NBS DNA
1,MKCN,≤ 0.2
2,SGNA,≤ 0.2
3,MILV,≤ 0.2
4,QVMM,≤ 0.2
5,GDPW,≤ 0.2
6,RHEL,≤ 0.2
7,RLCM,≤ 0.2
8,IDPT,≤ 0.2
9,DDSW,≤ 0.2
10,TNFF,≤ 0.2
11,GTVE,≤ 0.2
12,WIPR,≤ 0.2
13,NTAG,≤ 0.2
14,LPFA,≤ 0.2
15,QPVM,≤ 0.2
16,CMNT,≤ 0.2
17,YRKH,≤ 0.2
18,AILC,≤ 0.2
19,QAEG,≤ 0.2
20,ERMT,≤ 0.2
21,EGCG,≤ 0.2
22,ECFS,≤ 0.2
23,YMVA,≤ 0.2
24,RMRL,≤ 0.2

row,Variant,one-hybrid fitness for binding NBS DNA
1,EVTG,≤ 0.2
2,ASWY,≤ 0.2
3,PPEL,≤ 0.2
4,KLNK,≤ 0.2
5,WLCN,≤ 0.2
6,QNLY,≤ 0.2
7,TKGS,≤ 0.2
8,TKSR,≤ 0.2
9,HTYI,≤ 0.2
10,RKGV,≤ 0.2
11,EQTV,≤ 0.2
12,SFPR,≤ 0.2
13,PGNQ,≤ 0.2
14,QIPE,≤ 0.2
15,CDPK,≤ 0.2
16,HQPA,≤ 0.2
17,ADVW,≤ 0.2
18,WASC,≤ 0.2
19,RHVD,≤ 0.2
20,RVQW,≤ 0.2
21,HCHA,≤ 0.2
22,QHGN,≤ 0.2
23,LFSW,≤ 0.2
24,WMSV,≤ 0.2

row,Variant,one-hybrid fitness for binding NBS DNA
1,HSYA,≤ 0.2
2,MSVK,≤ 0.2
3,FRPI,≤ 0.2
4,LGAE,≤ 0.2
5,QQVP,≤ 0.2
6,GDMM,≤ 0.2
7,IITV,≤ 0.2
8,QYKE,0.213
9,QYFA,≤ 0.2
10,MLDM,≤ 0.2
11,AWDS,≤ 0.2
12,LQLG,≤ 0.2
13,PDMF,≤ 0.2
14,MHRI,≤ 0.2
15,QQHI,≤ 0.2
16,QVRV,≤ 0.2
17,SMGM,≤ 0.2
18,TCGV,≤ 0.2
19,VFPG,≤ 0.2
20,PVNQ,≤ 0.2
21,RGIA,≤ 0.2
22,AHGT,≤ 0.2
23,KIVV,≤ 0.2
24,VTVR,≤ 0.2

row,Variant,one-hybrid fitness for binding NBS DNA
1,GDCL,≤ 0.2
2,SDHY,≤ 0.2
3,VHKF,≤ 0.2
4,WESS,≤ 0.2
5,YQKG,≤ 0.2
6,SYAS,≤ 0.2
7,PGEC,≤ 0.2
8,VKHY,≤ 0.2
9,VMVY,≤ 0.2
10,GDDI,≤ 0.2
11,HYAN,≤ 0.2
12,GKRN,≤ 0.2
13,ETAS,≤ 0.2
14,DDDR,≤ 0.2
15,CATL,≤ 0.2
16,GMCC,≤ 0.2
17,NRFT,≤ 0.2
18,GALI,≤ 0.2
19,YDTG,≤ 0.2
20,RNGS,≤ 0.2
21,QEDF,≤ 0.2
22,SCWA,≤ 0.2
23,FEGR,≤ 0.2
24,TVPN,≤ 0.2

row,Variant,one-hybrid fitness for binding NBS DNA
1,GWKR,0.221
2,QHIW,≤ 0.2
3,YAQT,≤ 0.2
4,RHPP,≤ 0.2
5,EFYG,≤ 0.2
6,QGLP,≤ 0.2
7,SPTE,≤ 0.2
8,PDEL,≤ 0.2
9,YDPY,≤ 0.2
10,SFCT,≤ 0.2
11,AASM,≤ 0.2
12,ITKV,≤ 0.2
13,SERR,≤ 0.2
14,LFTY,≤ 0.2
15,NEMF,≤ 0.2
16,HLED,≤ 0.2
17,NYIE,≤ 0.2
18,PTYK,≤ 0.2
19,RCCA,0.268
20,YNGP,≤ 0.2
21,GELR,≤ 0.2
22,WCST,≤ 0.2
23,YTYR,≤ 0.2
24,HANF,≤ 0.2

row,Variant,one-hybrid fitness for binding NBS DNA
1,CAVY,≤ 0.2
2,DDHT,≤ 0.2
3,HSPT,≤ 0.2
4,RRSV,0.296
5,NQDG,≤ 0.2
6,DANY,≤ 0.2
7,YPCF,≤ 0.2
8,KSNR,≤ 0.2
9,GIET,≤ 0.2
10,PFPV,≤ 0.2
11,QSPY,≤ 0.2
12,LNAF,≤ 0.2
13,QPHK,≤ 0.2
14,QDNT,≤ 0.2
15,PMLY,≤ 0.2
16,WVRT,≤ 0.2
17,SAQT,≤ 0.2
18,QNRT,0.292
19,KNQF,≤ 0.2
20,AMLE,≤ 0.2
21,SNRY,≤ 0.2
22,REER,≤ 0.2
23,NPVF,≤ 0.2
24,RSND,≤ 0.2

row,Variant,one-hybrid fitness for binding NBS DNA
1,PYNG,≤ 0.2
2,DYNH,≤ 0.2
3,QMRK,0.387
4,WSFS,≤ 0.2
5,DREG,≤ 0.2
6,WFGR,≤ 0.2
7,DMHW,≤ 0.2
8,RSPW,≤ 0.2
9,LRPC,≤ 0.2
10,AKMP,≤ 0.2
11,VIAG,≤ 0.2
12,YRLI,≤ 0.2
13,TLLC,≤ 0.2
14,GTNI,≤ 0.2
15,KTCY,≤ 0.2
16,LDAC,≤ 0.2
17,TWGR,≤ 0.2
18,IRYR,0.226
19,NGIL,≤ 0.2
20,ETPM,≤ 0.2
21,RDRT,≤ 0.2
22,GCTE,≤ 0.2
23,NQHC,≤ 0.2
24,AKSR,≤ 0.2

row,Variant,one-hybrid fitness for binding NBS DNA
1,LAGQ,≤ 0.2
2,HGDY,≤ 0.2
3,RQTI,≤ 0.2
4,HTNY,≤ 0.2
5,QLCM,≤ 0.2
6,LNHR,≤ 0.2
7,NVHE,≤ 0.2
8,YCHI,≤ 0.2
9,NLDF,≤ 0.2
10,PIQT,≤ 0.2
11,SYNF,≤ 0.2
12,AYMG,≤ 0.2
13,SSGY,≤ 0.2
14,QMNG,≤ 0.2
15,HWLS,≤ 0.2
16,HSEM,≤ 0.2
17,DSAP,≤ 0.2
18,MSES,≤ 0.2
19,DTTP,≤ 0.2
20,QRKL,0.367
21,ITQS,≤ 0.2
22,LPRG,≤ 0.2
23,QTEF,≤ 0.2
24,LQAK,≤ 0.2

row,Variant,one-hybrid fitness for binding NBS DNA
1,EHKE,≤ 0.2
2,CARI,≤ 0.2
3,QRVL,≤ 0.2
4,QAKC,0.349
5,CMFS,≤ 0.2
6,SQPT,≤ 0.2
7,RCSY,≤ 0.2
8,SQCV,≤ 0.2
9,DKMG,≤ 0.2
10,DKLR,≤ 0.2
11,AMMR,≤ 0.2
12,QACT,0.363
13,YFYS,≤ 0.2
14,WPPR,≤ 0.2
15,WKLR,≤ 0.2
16,CAAW,≤ 0.2
17,PMQR,≤ 0.2
18,RCLK,≤ 0.2
19,DTQG,≤ 0.2
20,TQGT,≤ 0.2
21,RHSL,≤ 0.2
22,TEQA,≤ 0.2
23,SAYC,≤ 0.2
24,INWI,≤ 0.2

row,Variant,one-hybrid fitness for binding NBS DNA
1,YVHD,≤ 0.2
2,SFML,≤ 0.2
3,HTGN,≤ 0.2
4,KTFR,≤ 0.2
5,KHVC,≤ 0.2
6,QHGA,0.208
7,ERVR,≤ 0.2
8,NERC,≤ 0.2
9,ATVD,≤ 0.2
10,HQSA,≤ 0.2
11,GRQG,≤ 0.2
12,RQPA,≤ 0.2
13,GPTH,≤ 0.2
14,GWYS,≤ 0.2
15,YKKF,≤ 0.2
16,SFRF,≤ 0.2
17,VIML,≤ 0.2
18,PINF,≤ 0.2
19,TWTY,≤ 0.2
20,LGAS,≤ 0.2
21,DAEV,≤ 0.2
22,AATN,≤ 0.2
23,NFPR,≤ 0.2
24,RTGV,≤ 0.2

row,Variant,one-hybrid fitness for binding NBS DNA
1,QWVI,≤ 0.2
2,DEGR,≤ 0.2
3,WMPH,≤ 0.2
4,PEHL,≤ 0.2
5,KEDR,≤ 0.2
6,NAMR,≤ 0.2
7,SKPR,≤ 0.2
8,CPAD,≤ 0.2
9,MGEF,≤ 0.2
10,WANF,≤ 0.2
11,YKEK,≤ 0.2
12,FDLG,≤ 0.2
13,NPHY,≤ 0.2
14,QEDE,≤ 0.2
15,PGTG,≤ 0.2
16,QYSP,≤ 0.2
17,AGWR,≤ 0.2
18,AAAI,≤ 0.2
